IC50 is the fitted dose that halves viability relative to control wells, and lower means more sensitive; where the fit passes the top or lowest dose, that dose stands as a limit. AUC sums up the same curve from the lowest dose to the 256-fold higher top dose; values near 1 show little effect. A top dose marked as inferred was calculated from the reported fits. For part of these data: Drugs with an entry number were screened twice under separate entries, and the two screens often disagree.
How the values were obtained:
Assay in all cases: Viability of human cancer cell lines after 72 h of drug (GDSC screen)
AZD6482 = compound: Cc1cc([C@@H](C)Nc2ccccc2C(=O)O)c2nc(N3CCOCC3)cc(=O)n2c1 [AZD6482]
Experimental: (§1)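 Human cancer cell lines in 384-well plates, medium with 10% serum, drug for 72 h over a 256-fold dose range (nine 2-fold or five 4-fold steps up to the top dose). Adherent lines were fixed and stained with the nucleic acid dye Syto60, suspension lines read with resazurin; signal relative to control wells, capped at 0 and 100%. One two-parameter sigmoid per drug and line, fitted in a mixed model over all curves with the slope shared within a line.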

MLN4924 = compound: NS(=O)(=O)OC[C@@H]1C[C@@H](n2ccc3c(N[C@H]4CCc5ccccc54)ncnc32)C[C@@H]1O [MLN4924]; conditions: top dose 1 µM; top dose inferred
Experimental: as §1

BMN-673 = compound: Cn1ncnc1[C@H]1c2n[nH]c(=O)c3cc(F)cc(c23)N[C@@H]1c1ccc(F)cc1 [BMN-673]; conditions: top dose 10 µM; top dose inferred
Experimental: as §1

[1] = top dose 5 µM, screen: GDSC drug entry 1066, top dose inferred
[2] = top dose 5.12 µM, screen: GDSC drug entry 156

| Cell Line | AUC (AZD6482; [1]) | IC50 (AZD6482; [1]) | AUC (AZD6482; [2]) | IC50 (AZD6482; [2]) | AUC (MLN4924) | IC50 (MLN4924) | AUC (BMN-673) | IC50 (BMN-673) |
| --- | --- | --- | --- | --- | --- | --- | --- | --- |
| HOS (osteosarcoma, adherent) | 0.888 | 4.04 µM | 0.94 | > 5.12 µM | 0.69 | 0.192 µM | 0.626 | 1.3 µM |
| KMS-11 (myeloma, suspension) | 0.97 | > 5 µM |  |  | 0.838 | 0.539 µM | 0.959 | > 10 µM |
| G-361 (melanoma, adherent) | 0.825 | 2.84 µM | 0.775 | 1.94 µM | 0.933 | > 1 µM | 0.938 | > 10 µM |
| MOLT-4 (lymphoblastic leukaemia, suspension) | 0.921 | > 5 µM | 0.958 | > 5.12 µM | 0.855 | 0.575 µM | 0.563 | 0.896 µM |
| NCI-H1105 (small cell lung carcinoma, suspension) | 0.984 | > 5 µM |  |  | 0.973 | > 1 µM | 0.749 | 2.75 µM |
| SUP-B8 (B-cell leukaemia, suspension) | 0.877 | 4.93 µM |  |  | 0.974 | > 1 µM | 0.977 | > 10 µM |
| MEG-01 (chronic myeloid leukaemia, suspension) | 0.988 | > 5 µM | 0.973 | > 5.12 µM | 0.868 | 0.823 µM | 0.965 | > 10 µM |
| G-292 Clone A141B1 (osteosarcoma, adherent) | 0.72 | 1.94 µM | 0.86 | > 5.12 µM | 0.88 | > 1 µM | 0.887 | > 10 µM |
| MC-IXC (neuroblastoma, adherent) |  |  | 0.963 | > 5.12 µM | 0.812 | 0.37 µM | 0.024 | < 0.0391 µM |
| L-1236 (Hodgkin lymphoma, suspension) | 0.806 | 2.08 µM | 0.988 | > 5.12 µM | 0.925 | > 1 µM | 0.985 | > 10 µM |
| SKG-IIIa (cervix, adherent) | 0.921 | > 5 µM | 0.947 | > 5.12 µM | 0.916 | > 1 µM | 0.941 | > 10 µM |
| IM-9 (myeloma, suspension) | 0.988 | > 5 µM | 0.991 | > 5.12 µM | 0.734 | 0.259 µM | 0.781 | 3.56 µM |
| QIMR-WIL (acute myeloid leukaemia, suspension) | 0.873 | 4.57 µM | 0.817 | 2.76 µM | 0.832 | 0.612 µM | 0.668 | 1.81 µM |
| ACHN (kidney, adherent) | 0.758 | 1.96 µM | 0.927 | > 5.12 µM | 0.865 | > 1 µM | 0.98 | > 10 µM |
| NCI-H1341 (small cell lung carcinoma, suspension) | 0.87 | 3.52 µM |  |  | 0.876 | 0.744 µM | 0.78 | 3.5 µM |
| NCI-H2342 (lung adenocarcinoma, adherent) |  |  | 0.643 | 0.834 µM | 0.975 | > 1 µM | 0.834 | 7.51 µM |
| C3A (liver, adherent) | 0.979 | > 5 µM | 0.943 | > 5.12 µM | 0.943 | > 1 µM | 0.914 | > 10 µM |
| NCI-H1693 (lung adenocarcinoma, adherent) | 0.859 | > 5 µM | 0.881 | > 5.12 µM | 0.932 | > 1 µM | 0.87 | > 10 µM |
| BV-173 (chronic myeloid leukaemia, suspension) | 0.932 | > 5 µM | 0.986 | > 5.12 µM | 0.675 | 0.18 µM | 0.157 | 0.0663 µM |
| NCI-H835 (lung carcinoid, suspension) | 0.973 | > 5 µM |  |  | 0.99 | > 1 µM | 0.983 | > 10 µM |
| Detroit562 (head and neck, adherent) | 0.79 |  | 0.693 | 1.09 µM | 0.778 | 0.389 µM | 0.893 | > 10 µM |
| WSU-NHL (lymphoid neoplasm, suspension) | 0.64 | 0.724 µM | 0.945 | > 5.12 µM | 0.696 | 0.205 µM | 0.934 | > 10 µM |
| HTC-C3 (thyroid, adherent) | 0.777 | 2.25 µM | 0.853 | 4.79 µM | 0.94 | > 1 µM | 0.909 | > 10 µM |
| HD-MY-Z (Hodgkin lymphoma, adherent) | 0.956 | > 5 µM | 0.986 | > 5.12 µM | 0.649 | 0.162 µM | 0.611 | 1.27 µM |
| Calu-6 (lung adenocarcinoma, adherent) |  |  | 0.979 | > 5.12 µM | 0.843 | 0.866 µM | 0.897 | > 10 µM |

| Cell Line | AUC (AZD6482; [1]) | IC50 (AZD6482; [1]) | AUC (AZD6482; [2]) | IC50 (AZD6482; [2]) | AUC (MLN4924) | IC50 (MLN4924) | AUC (BMN-673) | IC50 (BMN-673) |
| --- | --- | --- | --- | --- | --- | --- | --- | --- |
| PL18 (pancreas, adherent) | 0.785 | 2.13 µM | 0.904 | > 5.12 µM | 0.796 | 0.465 µM | 0.728 | 2.76 µM |
| Saos-2 (osteosarcoma, adherent) | 0.923 | > 5 µM | 0.909 | > 5.12 µM | 0.815 | 0.88 µM | 0.882 | > 10 µM |
| 42-MG-BA (glioma, adherent) | 0.782 | 2.24 µM | 0.805 | 2.79 µM | 0.764 | 0.387 µM | 0.771 | 4.09 µM |
| OE19 (oesophagus, adherent) | 0.824 | 3.49 µM | 0.914 | > 5.12 µM | 0.949 | > 1 µM | 0.948 | > 10 µM |
| NCI-H2030 (lung adenocarcinoma, adherent) | 0.73 | 1.56 µM | 0.776 | 2.33 µM | 0.676 | 0.209 µM | 0.759 | 3.96 µM |
| TGBC24TKB (biliary tract, adherent) | 0.91 | > 5 µM | 0.958 | > 5.12 µM | 0.979 | > 1 µM | 0.982 | > 10 µM |
| SW756 (cervix, adherent) |  |  | 0.975 | > 5.12 µM | 0.831 | 0.809 µM | 0.78 | 4.94 µM |
| SW13 (adrenal gland, adherent) | 0.904 | > 5 µM | 0.937 | > 5.12 µM | 0.837 | 0.681 µM | 0.895 | > 10 µM |
| JiyoyeP-2003 (Burkitt lymphoma, suspension) | 0.984 | > 5 µM | 0.931 | > 5.12 µM | 0.697 | 0.207 µM | 0.954 | > 10 µM |
| MC116 (B-cell lymphoma, suspension) | 0.999 | > 5 µM | 0.769 | 1.43 µM | 0.999 | > 1 µM | 0.999 | > 10 µM |
| HT-1376 (bladder, adherent) |  |  | 0.959 | > 5.12 µM | 0.983 | > 1 µM | 0.975 | > 10 µM |
| KARPAS-231 (B-cell leukaemia, suspension) | 0.603 | 0.558 µM | 0.732 | 1.21 µM | 0.97 | > 1 µM | 0.677 | 1.71 µM |
| BFTC-905 (bladder, adherent) | 0.877 | 3.82 µM | 0.911 | > 5.12 µM | 0.721 | 0.237 µM | 0.879 | 7.84 µM |
| COLO-678 (large intestine, semi-adherent) | 0.98 | > 5 µM | 0.958 | > 5.12 µM | 0.943 | > 1 µM | 0.97 | > 10 µM |
| LC-2-ad (lung adenocarcinoma, adherent) | 0.935 | > 5 µM | 0.933 | > 5.12 µM | 0.747 | 0.327 µM | 0.607 | 1.24 µM |
| CL-40 (large intestine, adherent) | 0.936 | > 5 µM |  |  | 0.947 | > 1 µM | 0.805 | > 10 µM |
| NCI-SNU-1 (stomach, suspension) | 0.981 | > 5 µM | 0.952 | > 5.12 µM | 0.943 | > 1 µM | 0.972 | > 10 µM |
| SW780 (bladder, adherent) | 0.871 | > 5 µM | 0.909 | > 5.12 µM | 0.77 | 0.414 µM | 0.885 | > 10 µM |
| HH (T-cell leukaemia, suspension) | 0.763 | 2.4 µM | 0.529 | 0.394 µM | 0.974 | > 1 µM | 0.876 | > 10 µM |
| NCI-H3122 (lung adenocarcinoma, adherent) | 0.943 | > 5 µM | 0.854 | 4.24 µM | 0.769 | 0.389 µM | 0.686 | 2.11 µM |
| NCI-H596 (lung adenocarcinoma, adherent) | 0.951 | > 5 µM | 0.969 | > 5.12 µM | 0.979 | > 1 µM | 0.941 | > 10 µM |
| DMS-79 (small cell lung carcinoma, suspension) | 0.977 | > 5 µM | 0.963 | > 5.12 µM | 0.973 | > 1 µM | 0.937 | > 10 µM |
| SUIT-2 (pancreas, adherent) | 0.974 | > 5 µM | 0.979 | > 5.12 µM | 0.921 | > 1 µM | 0.718 | 2.69 µM |
| KALS-1 (glioma, adherent) | 0.846 | > 5 µM | 0.748 | 2.2 µM | 0.738 | 0.394 µM | 0.851 | > 10 µM |

— the supplement of paper PMC4967469
